# Assay results as given in PubChem BioAssay AID1645882 (National Center for Advancing Translational Sciences (NCATS), 2021).
# The campaign covered roughly 16,000 compounds. About 120 (0.75%) were called active. Another 4% or so got no clear call; they are omitted. Calls follow the shape of the dose curve; as a rule, active = well fitted inhibition curve with a large enough effect; inconclusive = small, poorly fitted or top-dose-only effect; inactive = no such curve, though single readings can be large or run the other way. Some of the results follow.
# Target: Rap guanine nucleotide exchange factor 3 (Homo sapiens) (UniProt O95398)
# UniProt O95398, sequence (O95398 whole entry, looked up): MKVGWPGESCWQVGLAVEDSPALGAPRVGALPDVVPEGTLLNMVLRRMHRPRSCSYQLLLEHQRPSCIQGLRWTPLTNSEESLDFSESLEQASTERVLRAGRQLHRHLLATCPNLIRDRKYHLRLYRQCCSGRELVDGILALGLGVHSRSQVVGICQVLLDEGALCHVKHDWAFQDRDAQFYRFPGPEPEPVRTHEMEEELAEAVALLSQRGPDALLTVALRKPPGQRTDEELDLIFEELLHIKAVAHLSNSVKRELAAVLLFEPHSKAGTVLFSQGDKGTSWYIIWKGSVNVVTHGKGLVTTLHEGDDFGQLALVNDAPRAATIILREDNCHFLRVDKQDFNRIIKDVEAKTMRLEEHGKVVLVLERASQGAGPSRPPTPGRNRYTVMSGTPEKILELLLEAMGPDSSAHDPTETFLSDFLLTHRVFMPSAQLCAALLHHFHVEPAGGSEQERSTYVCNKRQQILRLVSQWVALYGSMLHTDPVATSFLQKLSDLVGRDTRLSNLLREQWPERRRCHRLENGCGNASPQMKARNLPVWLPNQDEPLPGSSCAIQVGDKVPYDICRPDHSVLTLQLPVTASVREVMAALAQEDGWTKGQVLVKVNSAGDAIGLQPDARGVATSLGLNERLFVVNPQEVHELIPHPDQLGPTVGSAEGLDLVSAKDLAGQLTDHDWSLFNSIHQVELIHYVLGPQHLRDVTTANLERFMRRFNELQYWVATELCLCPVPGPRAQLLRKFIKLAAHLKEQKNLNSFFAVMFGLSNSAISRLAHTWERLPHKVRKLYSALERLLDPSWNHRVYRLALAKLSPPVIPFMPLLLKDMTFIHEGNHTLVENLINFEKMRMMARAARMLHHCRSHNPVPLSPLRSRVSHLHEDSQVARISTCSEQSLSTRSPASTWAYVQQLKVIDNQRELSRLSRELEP
# Experiment: Validation qHTS for antagonist of cAMP-regulated guanine nucleotide exchange factor 3 (EPAC1); also: nearly all actives have a fitted effect of over 75% in size;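 as to activity change, negative = inhibition: plate controls were DMSO for no effect and ATA control for full effect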
# Conditions: EPAC1 Rap1B-BODIPY-GDP exchange, fluorescence; series mostly up to 150 µM; activity change, negative = inhibition: at the top concentration
# Outline: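 EPAC1 (100 nM) mixed with 250 nM RAP1B-BODIPY-GDP and 50 uM GDP; compounds in concentration series, 5 min at room temperature. Fluorescence (ex 480/em 540 nm) read every 5 min for 30 min; normalized to ATA control and DMSO.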
# Potency is read from the fitted curve at half-maximal effect.
Compound,"activity change, negative = inhibition",Potency
COc1cccc(-c2nccc(NCc3cnc(C)cn3)n2)c1,inactive: 3.57%,–
CCNc1ncc2nc(-c3cc(F)cc(F)c3)c(=O)n(-c3ccccc3)c2n1,inactive: 10%,–
CC1(C(=O)O)NCCc2cc(O)c(O)cc21 (stereo unspecified),inactive: 23%,–
Cl/C(=C\n1cncn1)c1ccc(Cl)cc1Cl,inactive: -21%,–
COc1ccccc1C(=O)N(Cc1cc2cccc(C)c2nc1N1CCC(O)CC1)C1CC1,inactive: -0.303%,–
CCC(=O)NC1Cc2ccccc2C(c2ccccc2)C1 (stereo unspecified),inactive: 15.5%,–
NC(N)=NCCC[C@@H](N)C(=O)O,inactive,–
COc1ccc2[nH]cc(CCNc3ncncc3-c3ccc(C(=O)N(C)C)cc3)c2c1,inactive: -10.8%,–
COc1cccc(-c2nc(N(C)C)c3ccccc3n2)c1,inactive: -0.184%,–
COc1ccc(S[C@@H](CCN2CC[C@H](C)CCC2=O)c2ccccc2)cc1,inactive: -7.5%,–
C=C1C[C@]23C[C@@]1(O)CC[C@H]2[C@@]12C=C[C@H](O)C(C)(C(=O)O1)[C@H]2[C@@H]3CC(=O)O,inactive: -0.992%,–
COc1ccccc1CNc1ncncc1-c1cccnc1,inactive: 9.25%,–
COc1ccccc1-c1ccnc(-n2ncc(C(=O)NC(c3cccnc3)C(F)(F)F)c2C)n1 (stereo unspecified),inactive: 15.5%,–
CCNc1ncc2nc(-c3ccc(Cl)cc3)c(=O)n(Cc3cccs3)c2n1,inactive: 24.9%,–
COc1ccccc1C(=O)N[C@@H]1c2ccccc2C2(CCN(C(=O)c3csnn3)CC2)[C@H]1OC,inactive: 5.95%,–
CN(C)C(=O)c1ccc(-c2nc(NCc3ccccc3)c3ccccc3n2)cc1,inactive: 12%,–
COc1ccc(CN2CCC3(CC2)c2ccccc2[C@@H](NC(=O)c2ccccc2)[C@@H]3O)cc1O,inactive: 1.77%,–
COc1ccc(CNc2ncnc3ccc(-c4cccnc4)cc23)c(OC)c1,inactive: 21.8%,–
Cc1ccc(=O)n(-c2ccccc2)c1,inactive,–
CC(=O)[C@]1(O)CCC2C3CCC4=CC(=O)CC[C@@]4(C)C3CC[C@]21C (stereo partly specified),inactive: 10.2%,–
Cc1cnc(SCc2ccccn2)nc1C1CCCN(C(=O)c2coc3c2C(=O)CCC3)C1 (stereo unspecified),inactive: 0.122%,–
Cc1ccc2nc(/C=C/c3ccc(N(C)C)cc3)ccc2c1,inactive: 29.3%,–

Compound,"activity change, negative = inhibition",Potency
COc1ccc(-c2nc3cnc(N4CCN(C)CC4)nc3n(CCC#N)c2=O)cc1,inactive: 1.09%,–
O=C(c1cnccn1)N1CCC2(CCCN(c3ccccn3)C2)CC1,inactive: 5.63%,–
CN1CCC(=C2c3ccccc3Sc3ccccc32)CC1,inactive: 294%,–
CC(C)c1c(C(=O)N2CCCCC2c2cccnc2)cnn1-c1nccc(-c2cccs2)n1 (stereo unspecified),inactive: 21.6%,–
Nc1c2ccccc2nc2ccccc12,inactive,–
COc1cccc(Nc2ncc3nc(-c4ccccc4)c(=O)n(C[C@H]4CCCO4)c3n2)c1,inactive: 5.26%,–
CC(=O)NCCNc1cc(-c2ccccc2C(F)(F)F)ncn1,inactive: 10.1%,–
CCCCCCCCCCCC[n+]1ccc(/C=C/c2c[nH]c3ccccc23)c2ccccc21,inactive: -4.26%,–
CC(=O)N1CCC[C@H]1C(=O)NCC1Cc2cc(Cl)cc(-c3ccc4[nH]ccc4c3)c2O1 (stereo partly specified),inactive: 14.4%,–
OC(C1=C/C(=C\c2ccncc2)c2ccccc21)c1ccncc1 (stereo unspecified),inactive: -24.3%,–
O=C(NCCc1ccccn1)C1CC12CCN(C(=O)c1cccc(C(F)(F)F)c1)CC2 (stereo unspecified),inactive: 9.57%,–
C[C@@H]1CNCCN1S(=O)(=O)c1cccc2cnccc12,inactive: 3.3%,–
COCC(=O)Nc1cc(C(=O)N2CC3CCC2C3)c2c(c1)nc(-c1ccncc1)n2C (stereo unspecified),inactive: 12.2%,–
C[C@@H](CN=[N+]=[N-])CN1CC[C@H](O)CCC1=O,inactive: 14.9%,–
O=C(C[n+]1cc(Br)cc2ccccc21)c1ccc(F)cc1,inactive: 18.4%,–
Cc1cc(NC(=O)Nc2ccc3c(ccn3C)c2)sn1,inactive,–
N#CCCn1c(=O)cnc2cnc(N3CCNCC3)nc21,inactive: 7.74%,–
COC(=O)C1NC(=O)N2C(C(=O)OC)C(C)(C)S[C@H]12 (stereo partly specified),inactive: 0.869%,–
Cc1cnc(CNc2cc(-c3ccc4c(c3)OCO4)ncn2)cn1,inactive: 9.51%,–
COCCn1c(=O)cnc2cnc(N(C)C)nc21,inactive: -6.19%,–
COc1ccc2c(c1)OC(C)CN(CCNC(=O)C1CCOC1)C2 (stereo unspecified),inactive: 17.6%,–
O=C(CCCN1CCN(c2ccccn2)CC1)c1ccc(F)cc1,inactive,–

Compound,"activity change, negative = inhibition",Potency
COC(=O)c1cc(OC)c(=O)c2c(OC)c(OC)ccc2c1,inactive: 18.9%,–
CN(C)c1ccc(-c2cc(-n3ccnc3)ncn2)cc1,inactive: 9.54%,–
COc1cccc(-c2nc(N3CCN(C)CC3)c3ccccc3n2)c1,inactive: 4.77%,–
O=S1(=O)CCOCCCN1Cc1ccc(Cl)cc1,inactive: 9.3%,–
C=CC(C)(C)c1[nH]c2ccccc2c1C1=C(O)C(=O)C(c2c[nH]c3c(CC=C(C)C)cccc23)=C(O)C1=O,–,active: 56.2 µM
COc1ccc([C@@H]2[C@@H](O)[C@H](O)[C@@H](C)N2C)cc1OC,inactive: 23.2%,–
c1cncc(-c2cncnc2NCc2cccs2)c1,inactive: 11.6%,–
N[C@@H](C(=O)O)c1ccc(C(=O)O)cc1,inactive,–
OC(CN1CCOCC1)c1ccccc1 (stereo unspecified),inactive: 8.5%,–
CO[C@H](C(=O)[C@@H](O)[C@@H](C)O)C1Cc2cc3cc(O[C@H]4C[C@@H](O[C@H]5C[C@@H](O)[C@H](O)[C@@H](C)O5)[C@@H](O)[C@@H](C)O4)c(C)c(O)c3c(O)c2C(=O)[C@H]1O[C@H]1C[C@@H](O[C@H]2C[C@@H](O[C@H]3C[C@](C)(O)[C@H](O)[C@@H](C)O3)[C@H](O)[C@@H](C)O2)[C@H](O)[C@@H](C)O1 (stereo partly specified),inactive,–
CC(=O)OCCC(C)CCC=C(C)C (stereo unspecified),inactive: 16.3%,–
COc1ccc(F)c(CN2CCC3(CCC(CNC(=O)c4cc(C)nn4C)O3)CC2)c1 (stereo unspecified),inactive: 11.7%,–
N[C@H](Cc1c[nH]c2ccccc12)C(=O)O,inactive: 18.1%,–
COC(=O)[C@H](NC(=O)c1cc(-c2ccccc2)nc2ccccc12)c1ccccc1,inactive,–
CC(=O)OC1CC[C@@]2(C)C3CC(=O)[C@]4(C)C(C(C)=O)=CCC4C3CC[C@H]2C1 (stereo partly specified),inactive: 2.82%,–
CN(C)C(N)=NCCC[C@H](N)C(=O)O,inactive: -12% [at 75.8 µM],–
COC(=O)C1=C(C#N)NC(C)=C(C(=O)OC(C)C)C1c1cccc([N+](=O)[O-])c1 (stereo unspecified),inactive: -11.6%,–
N#Cc1cc2nc(O)c(O)nc2cc1[N+](=O)[O-],inactive,–
Nc1ccc(S(=O)(=O)NCc2ccccc2)cc1,inactive: 8.96%,–
NC(=O)c1ccccc1-c1nc(-n2ccnc2)c2ccccc2n1,inactive: 11.9%,–
COCC(=O)Nc1cc(C(=O)N2CCCCC2c2nccs2)c2c(c1)nc(-c1ccncc1)n2C (stereo unspecified),inactive: 6.53%,–
C[C@@H](CN1CCC(Cc2ccccc2)CC1)[C@@H](O)c1ccc(O)cc1,inactive,–
